# Laboratory results published in the BET-seq Pho4 binding data (Le et al. 2018).
# The list shows a part of the results. These are noisy estimates, calculated here from bound and input reads.
# Molecular target: T1, Pho4 (S. cerevisiae) (UniProt P07270)
# T1 sequence: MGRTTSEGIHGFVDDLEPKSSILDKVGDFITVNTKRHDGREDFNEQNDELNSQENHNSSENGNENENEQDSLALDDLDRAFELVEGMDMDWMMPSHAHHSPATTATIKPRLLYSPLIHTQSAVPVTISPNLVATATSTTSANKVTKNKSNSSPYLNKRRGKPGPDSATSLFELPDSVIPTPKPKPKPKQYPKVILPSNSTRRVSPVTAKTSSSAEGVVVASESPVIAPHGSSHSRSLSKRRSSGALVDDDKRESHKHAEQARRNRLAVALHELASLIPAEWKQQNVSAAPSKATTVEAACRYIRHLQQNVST
# Assay: relative binding free energy (BET-seq); higher = weaker binding
# Details: reference: library average
row,Sequence,relative binding free energy
1,GTATTCACGTGAGAGA,0.31 kcal/mol
2,ATGGTCACGTGCTTGC,0.13 kcal/mol
3,GGTAACACGTGCGGGT,0.07 kcal/mol
4,TAGGGCACGTGGTTGG,-0.1 kcal/mol
5,CTTTGCACGTGTTAGT,0.01 kcal/mol
6,TCAGGCACGTGGGATA,-0.16 kcal/mol
7,ATAGACACGTGGGATG,-0.11 kcal/mol
8,AGGGGCACGTGTTTAT,-0.1 kcal/mol
9,GAGATCACGTGAGTGG,0.38 kcal/mol
10,CAAGTCACGTGTTATG,0.12 kcal/mol
11,ATAAGCACGTGGTAGA,-0.08 kcal/mol
12,CGGTGCACGTGTTTGA,0.01 kcal/mol
13,AAAGTCACGTGATGGA,0.33 kcal/mol
14,TTTGACACGTGGTGCG,-0.17 kcal/mol
15,GGTCGCACGTGTGTGG,0.04 kcal/mol
16,TGTTTCACGTGGTCTT,0.21 kcal/mol
17,GTAAGCACGTGTGTTA,0.04 kcal/mol
18,TTAAACACGTGAGGTG,0.18 kcal/mol
19,CGGGGCACGTGCGTGG,-0.17 kcal/mol
20,TATTACACGTGTGAGG,0.12 kcal/mol
21,CTGTTCACGTGCGTGA,0.19 kcal/mol
22,AGATCCACGTGGTGTG,-0.1 kcal/mol
23,TGCGGCACGTGGCTTG,-0.13 kcal/mol
24,GGTCGCACGTGAGGTT,0.31 kcal/mol
25,CTGGGCACGTGTAGAG,-0.26 kcal/mol

row,Sequence,relative binding free energy
1,TAAGGCACGTGGGCTG,-0.28 kcal/mol
2,TGCATCACGTGGGGGG,-0.02 kcal/mol
3,TTTCACACGTGTGTTT,0.08 kcal/mol
4,CGTGGCACGTGTTCGT,-0.21 kcal/mol
5,GGACACACGTGTTGGG,-0.13 kcal/mol
6,TAGGGCACGTGTGTGA,-0.16 kcal/mol
7,TAATTCACGTGCGGTT,0.32 kcal/mol
8,GAGCTCACGTGGTGTG,0.15 kcal/mol
9,AAATTCACGTGGTATA,0.17 kcal/mol
10,GGGTGCACGTGAGCTT,0.16 kcal/mol
11,ACTTGCACGTGCTGTG,-0.06 kcal/mol
12,ACAGGCACGTGTGGTT,-0.06 kcal/mol
13,GGTAACACGTGGGCAT,-0.17 kcal/mol
14,GGATTCACGTGGTTAA,0.2 kcal/mol
15,ACGGTCACGTGGGTTG,-0.08 kcal/mol
16,CGTATCACGTGGTGTG,0.1 kcal/mol
17,AGGAGCACGTGAGTGC,0.11 kcal/mol
18,TTTCTCACGTGTGTCG,0.27 kcal/mol
19,TGGCACACGTGAGGAG,0.18 kcal/mol
20,TTATTCACGTGATTTA,0.28 kcal/mol
21,TCAGGCACGTGCGTGG,-0.33 kcal/mol
22,GGTTTCACGTGTGAAT,0.37 kcal/mol
23,GGTCGCACGTGAATGT,0.3 kcal/mol
24,GTTAACACGTGTAGCG,0.07 kcal/mol
25,TCATTCACGTGGGGGC,0.1 kcal/mol

row,Sequence,relative binding free energy
1,GTGATCACGTGAATAG,0.37 kcal/mol
2,TCTATCACGTGGATTT,0.14 kcal/mol
3,AATGGCACGTGTGTTG,-0.1 kcal/mol
4,GGGGTCACGTGGCGCT,0.03 kcal/mol
5,GCTGTCACGTGAAAGG,0.5 kcal/mol
6,AGTAACACGTGGTATT,-0.09 kcal/mol
7,CGGAGCACGTGGTGGG,-0.1 kcal/mol
8,GGATTCACGTGTGGGC,0.28 kcal/mol
9,TGGTCCACGTGGTGAC,0.16 kcal/mol
10,GCTGTCACGTGAGATG,0.37 kcal/mol
11,TTCGCCACGTGGTGTT,-0.24 kcal/mol
12,AATGTCACGTGCAAGG,0.18 kcal/mol
13,GTCTACACGTGCTTGG,0.31 kcal/mol
14,CGCAGCACGTGTTGTG,-0.08 kcal/mol
15,TGAGTCACGTGTTGTA,0.15 kcal/mol
16,GTTTACACGTGAGGTT,0.41 kcal/mol
17,TGTTGCACGTGTACGG,-0.11 kcal/mol
18,ATGTACACGTGGTTGT,-0.07 kcal/mol
19,GGGTGCACGTGTTAAA,0.1 kcal/mol
20,TGCTTCACGTGCGAGG,0.3 kcal/mol
21,TAACTCACGTGTAGTT,0.28 kcal/mol
22,CGTTACACGTGGATGG,0.13 kcal/mol
23,ATGAACACGTGTGTTA,-0.01 kcal/mol
24,TGGGACACGTGGACTA,0.1 kcal/mol
25,CGGTGCACGTGTTTTA,-0.16 kcal/mol

row,Sequence,relative binding free energy
1,TGCGGCACGTGACGGT,0.07 kcal/mol
2,CCGGGCACGTGGAGGT,-0.19 kcal/mol
3,GGTAGCACGTGTGGTT,0.02 kcal/mol
4,TGTGACACGTGGTAAT,0.02 kcal/mol
5,TTGGACACGTGATCGT,-0.06 kcal/mol
6,CGGGTCACGTGGATAG,0.08 kcal/mol
7,AGGTGCACGTGTGGTA,-0.02 kcal/mol
8,GTAGTCACGTGCTGTG,0.09 kcal/mol
9,ATGCTCACGTGCTTGT,0.15 kcal/mol
10,ATTTGCACGTGGATAA,-0.15 kcal/mol
11,ATGTTCACGTGTGGAT,0.3 kcal/mol
12,TATGTCACGTGGTGAG,0.02 kcal/mol
13,TTTGACACGTGATTTT,0.15 kcal/mol
14,TGGGCCACGTGCGTGG,-0.19 kcal/mol
15,GGGTGCACGTGCTGGG,0 kcal/mol
16,GGTATCACGTGGTGAC,0.15 kcal/mol
17,CTTTACACGTGGTAGT,0.13 kcal/mol
18,TATTGCACGTGAAGGT,0.18 kcal/mol
19,GAGGGCACGTGGTTAC,-0.07 kcal/mol
20,GGAGACACGTGATTTT,0.2 kcal/mol
21,AGATTCACGTGCTGTG,0.2 kcal/mol
22,CGGATCACGTGGTTGT,0.14 kcal/mol
23,TGTCTCACGTGGGTAG,0.07 kcal/mol
24,GAGGTCACGTGGGTAT,-0.02 kcal/mol
25,TGCCGCACGTGAGGGG,0.13 kcal/mol

row,Sequence,relative binding free energy
1,TTGGGCACGTGGTAAC,-0.27 kcal/mol
2,GGAATCACGTGGTTGA,0.21 kcal/mol
3,GTTGACACGTGCAGAG,0.12 kcal/mol
4,GGAGTCACGTGGAAGG,0.19 kcal/mol
5,ATTCACACGTGGGTAG,-0.06 kcal/mol
6,AGGTTCACGTGCAGGT,0.25 kcal/mol
7,AATATCACGTGGCAGG,0.15 kcal/mol
8,GTTGCCACGTGCGGAG,0.07 kcal/mol
9,GTGAGCACGTGGTGTA,-0.11 kcal/mol
10,ATTTGCACGTGAGTTT,0.38 kcal/mol
11,TTTGGCACGTGACATG,0 kcal/mol
12,TGTGGCACGTGTATCG,-0.11 kcal/mol
13,TTTAGCACGTGTACGT,0.03 kcal/mol
14,CAGGGCACGTGTTGGG,-0.03 kcal/mol
15,GACAGCACGTGGGTAG,0.04 kcal/mol
16,GCGTTCACGTGGTGTT,0.16 kcal/mol
17,TGGAGCACGTGCGATG,-0.12 kcal/mol
18,TGGCACACGTGTTGTG,0.12 kcal/mol
19,GGCGTCACGTGTATGG,0.17 kcal/mol
20,GAGGGCACGTGGAGTC,0.03 kcal/mol
21,TAAATCACGTGTTAAG,0.09 kcal/mol
22,GTGACCACGTGAGGGT,0.19 kcal/mol
23,TAGAACACGTGGGTTA,-0.21 kcal/mol
24,TTGAGCACGTGGCAGA,0 kcal/mol
25,GGGATCACGTGGAATG,0.26 kcal/mol

row,Sequence,relative binding free energy
1,TCTGACACGTGATTGG,0.02 kcal/mol
2,TTGGGCACGTGGCTTC,-0.16 kcal/mol
3,TTTGGCACGTGCGCTT,-0.17 kcal/mol
4,TTTTACACGTGATTAA,0.23 kcal/mol
5,TGGGGCACGTGAGTTG,0.21 kcal/mol
6,TGTATCACGTGAGGTA,0.32 kcal/mol
7,AAGGACACGTGTTAAG,0.13 kcal/mol
8,TTGTTCACGTGTCAGT,0.23 kcal/mol
9,CTCATCACGTGGTGTG,0.04 kcal/mol
10,TGGGTCACGTGGACTT,0.15 kcal/mol
11,TGTGACACGTGGTAAG,0 kcal/mol
12,GATGACACGTGGGCAG,-0.06 kcal/mol
13,TAAAACACGTGTTTAT,-0.06 kcal/mol
14,GTTAACACGTGCAGTG,0.14 kcal/mol
15,ATTTACACGTGATGAT,0.04 kcal/mol
16,TTTTACACGTGTTAAC,0.15 kcal/mol
17,ATCGTCACGTGGGTGT,0.06 kcal/mol
18,TATGTCACGTGGTGAT,0.12 kcal/mol
19,CGACACACGTGGGGTT,-0.05 kcal/mol
20,CAGATCACGTGGTGGG,0.09 kcal/mol
21,TATGGCACGTGATATT,-0.04 kcal/mol
